Laboratory results published in PubChem BioAssay AID1508624 (National Center for Advancing Translational Sciences (NCATS), 2021).
The campaign covered roughly 48,000 compounds. About 120 (0.25%) were called active. Not shown: some 4% with an inconclusive outcome. Calls come from the whole dose curve; as a rule, active = well fitted activation curve with a large enough effect; inconclusive = small, poorly fitted or top-dose-only effect, or another doubt; inactive = no such curve, though single readings can be large or run the other way. This is one part of the list.

Test: Primary qHTS for Identification of Small Molecule Activators of Huntingtin-Antisense Promoter Activity; note: nearly all actives have a fitted effect of over 55% in size
Conditions: HEK293 HTT-AS promoter firefly luciferase reporter, 24 h; series mostly up to 57.5 µM; activity change, positive = activation: at the top concentration
In short: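 HEK293 Fluc reporter, 2,500 cells/well, 24 h pre-culture; cpds up to 57.5 uM final, 24 h 37 degrees C; Dual-Glo, 10 min RT; normalized vehicle = 0%, zero RLU = -100%.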

Activity change, positive = activation, inactive:
Nc1ccc(S(=O)(=O)Nc2nccs2)cc1 -3.67%
O=C(CCC1N=C2c3ccccc3N=C(SCc3ccccc3Cl)N2C1=O)N1CCN(c2ccccc2)CC1 (centres undefined) -21.3%
COC(=O)c1ccc(NC(=O)c2cccc3c2C(=O)N(C2CCCCC2)C3)cc1 6.61%
COC(=O)CC1Oc2ccc(C)cc2-n2cc(-c3ccc(F)cc3)nc21 (centres undefined) -15.8%
O=C(O)c1cccc(-c2noc(-c3ccccc3F)n2)c1
COc1ccc(N2CCN(C(=O)c3cc(NS(=O)(=O)c4ccc(F)cc4)ccn3)CC2)cc1 -19.3%
CCOc1ccc(CCNC(=O)CCN2N=C(c3ccc(OC)cc3)CCC2=O)cc1OCC -23.2%
Cc1ccc(C)c(NC(=O)CSc2ncc3c(n2)-c2cc(Cl)ccc2N(Cc2ccccc2F)S3(=O)=O)c1 -3.68%
Cc1ccc(C)c(N2CCN(C(=O)CCn3c(=O)[nH]c4ccccc4c3=O)CC2)c1 -25.7%
CCCSCCCNC(=O)c1cc2n(n1)CCCN(Cc1ccc(C)cc1)C2=O -27.3%
COc1ccc(Cn2ccc3nc(C)c(C(=O)NCc4ccc(C)cc4)cc3c2=O)cc1 -19.3%
CC(CNC1CCCCC1)OC(=O)c1ccccc1 (centres undefined) -19.7%
CC1(C)CC(=O)c2cc(-c3nc(-c4ccc(Cl)cc4)cs3)c(=O)n(-c3ccc(F)cc3)c2C1 -19.6%
Cc1cc(Cl)ccc1NC(=O)CCn1nc(C)c2c(C)n(-c3ccccc3)nc2c1=O 10.9%
Cc1cccc(OCCSc2nc3ccc(NC(=O)COc4ccccc4F)cc3s2)c1 -20%
Cc1cccc(C)c1OCCn1c(C2CC(=O)N(Cc3ccc(F)cc3)C2)nc2ccccc21 (centres undefined) -42.9%
O=C(CCS(=O)(=O)c1cccc2nonc12)Nc1cccc(F)c1 20.7%
CC(C)NC(=O)CSc1nc2ccccc2c(=O)n1Cc1ccc(C(=O)NC(C)C)cc1 -10.9%
O=C(CSc1nc(=O)[nH]c2c1CCC2)NCc1ccc(Cl)cc1 -6.59%
Cc1noc2ncnc(N3CCN(c4ccccc4F)CC3)c12 -26.2%
COc1ccc(CN(Cc2ccco2)c2cnc(S(C)(=O)=O)nc2C(=O)Nc2ccc(C)c(C)c2)cc1 -8.85%
COC(=O)c1ccc(C(=O)Nc2ccc(-c3nc4cc(NC(=O)c5ccc(C(=O)OC)cc5)ccc4o3)cc2)cc1 -10.7%
Cc1cccc(CSc2nc3cccnc3n2Cc2ccc(C(=O)NCc3ccco3)cc2)c1 -17.3%
Cc1ccc(Cl)cc1NC(=O)Cn1cc2c(n1)CCCCC2 -2.13%
CCSc1ncc(Cl)c(C(=O)Nc2ccc(S(=O)(=O)Nc3nccc(C)n3)cc2)n1 -14.8%
C=CCC(CC=C)(CNC(=O)C(=O)Nc1ccc(C(=O)OCC)cc1)c1ccccc1 -17.2%
COC(=O)c1ccccc1NC(=O)c1cc2c(-c3ccc(OC)c(OC)c3)nn(C)c2s1 17.4%
Cc1ccc(NC(=O)C(Cc2ccccc2)n2cccc2)cc1C (centres undefined) -19.1%
Cc1ccc(-c2nc3ccccn3c2Nc2ccc3c(c2)OCO3)o1 12.4%
COc1ccc(-c2nn(-c3cccc([N+](=O)[O-])c3)c3c2cnc2cc4c(cc23)OCO4)cc1 -6.54%
CC(C)c1ccc(Nc2nc3c(S(=O)(=O)c4ccc(Br)cc4)nnn3c3ccsc23)cc1 -24.2%
CCCN(C(=O)c1cc2c(s1)-c1c(C)cccc1OC2)c1ccc(OCC)cc1 -10.1%
CCSc1nnnn1-c1cccc(C(=O)O)c1 18.5%
CCOC(=O)c1cc(-c2ccc(C)cc2)n(CC(=O)NC2CCCCCC2)c1C -3.95%
COc1cccc(NS(=O)(=O)c2ccc3c(c2)CCCN3C(=O)C2CCC2)c1 -17%
Cc1c(NC(=O)Nc2ccc(C#N)cc2)c(=O)n(-c2ccccc2)n1C -3.66%
Cc1cccc(-c2c3c(=O)n(C)c(=O)n(C)c3c3cnc4ccccc4n23)c1 4.95% [at 11.5 µM, percent change from vehicle, -100% = no light]
COc1ccc(C2c3[nH]c4ccc(OC)cc4c3CCN2C(=O)Nc2ccccc2)cc1 (centres undefined) -45.4%
CCC(=O)Nc1sc2c(c1C(=O)Nc1cccc(C)c1)CCCC2 -20.5%
Cc1ccc(NC(=O)Cn2cc(S(=O)(=O)c3ccccc3)c(=O)c3cc4c(cc32)OCO4)cc1 -27.2%
COc1ccccc1Nc1nn2c(=O)c3ccc(C(=O)NC(C)c4ccccc4)cc3nc2s1 (centres undefined) -21.2%
Cc1cccc(C(=O)Nc2ccc(OCc3cc(=O)n4c5c(sc4n3)CCCC5)cc2)c1 -8.8%
Cc1ccc(CNC(=O)CSc2nc3n[nH]c(C)c3c(=N)n2-c2cccc(C)c2)cc1 -32.9%
CCOc1ccc(NC(=O)Cn2cc(S(=O)(=O)N3CCN(c4ccccc4F)CC3)c3ccccc3c2=O)cc1 -10.7%
O=C(NCCc1csc2nc(-c3cccc(F)c3)nn12)c1ccc(Br)o1 -11.5%
COc1ccc(N(CC(=O)N2CCN(c3ccc(F)cc3)CC2)S(=O)(=O)c2c(C)n[nH]c2C)cc1 -23.3%
COc1ccc(-c2noc(-c3ccc(N4CCC(C)CC4)c([N+](=O)[O-])c3)n2)cc1OC -12.4%
CC(C)(C)c1ccc(C(=O)NC(Cc2c[nH]c3ccccc23)C(=O)OCC(=O)c2ccc(Cl)cc2)cc1 (centres undefined) -4.45%
CCCCNc1nc2c(c(=O)n(Cc3ccc(Cl)c(Cl)c3)c(=O)n2C)n1C -26.1%
Cc1ccc(CNC(=O)c2cccc(-n3cnc4cccnc43)c2)cc1 -6.48%
CCc1ccc(NC(=O)CCNS(=O)(=O)c2ccc3c(c2)CCCC(=O)N3)cc1 -7.69%
COc1cccc(C(=O)Nc2c3c(nn2-c2ccc(Cl)cc2)CS(=O)(=O)C3)c1 -13.1%
OC(C#CCN1CCCC1)(c1ccccc1)c1ccccc1 -9.42%
CCOC(=O)c1scc(-c2ccccc2)c1S(=O)(=O)N1CCN(c2ccccc2OC)CC1 -32.2%
COc1ccc(NC(=O)c2oc3ccc(S(=O)(=O)N(C)C4CCCCC4)cc3c2C)cc1 -37.3%
CCOC(=O)c1ccc(NC(=O)CSc2nc3c([nH]c4ccccc43)c(=O)n2C)cc1 -35%
Cc1cn2c(=O)cc(COc3ccccc3NC(=O)c3ccc(Cl)cc3)nc2s1 -11.7%
Cc1ccccc1-c1noc(-c2cc(-c3ccc(F)cc3)n[nH]2)n1 26.1%
Cc1ccc(NC(=O)C2CCC(CNS(=O)(=O)c3ccc4c(c3)CCCC(=O)N4)CC2)c(C)c1 (centres undefined) -7.42%
